The DeepSol protein solubility set

Assay: soluble on expression in E. coli; label from the status in PepcDB or PDB records

Sequence	soluble on expression in E. coli
MASSTSLPAPGSRPKKPLGKMADWFRQTLLKKPKKRPNSPESTSSDASQPTSQDSPLPPSLSSVTSPSLPPTHASDSGSSRWSKDYDVCVCHSEEDLVAAQDLVSYLEGSTASLRCFLQLRDATPGGAIVSELCQALSSSHCRVLLITPGFLQDPWCKYQMLQALTEAPGAEGCTIPLLSGLSRAAYPPELRFMYYVDGRGPDGGFRQVKEAVMRYLQTLSWHLLYHGTPEIGVKLETENPCRASDSHKCDKRYRE	soluble
MGSDKIHHHHHHASCDSFNEDLPECRLSVKFKYDYNMEFADAFHAQVDKVELYVFDKNGKYLFKQAEEGSALSTGNYLMEVELPVGQYQFMAWAGARDSYDITSLTPGVSTLTDLKLKLKREASLIINKRMETLWYGEVINVNFDGTVHQTETINLIRDTKIVRFGFQSYTGSWTLDMNDYDYEIIESNGHLGHDNSLLDDDVLSFRPYYMEQKDPATAYVDMNTMRLMEDRKTRLVLTEKASGKRVFDINLIDYLAMTNAEGKNLSTQEYLDRQSNYHIIFFLSESWLAVQIVVNGWVHRIQEENQ	not soluble
